# PMC5193403
# Protein sequences, listed by entry. Tags and fused reporters are not part of them.
# UniProt P08151: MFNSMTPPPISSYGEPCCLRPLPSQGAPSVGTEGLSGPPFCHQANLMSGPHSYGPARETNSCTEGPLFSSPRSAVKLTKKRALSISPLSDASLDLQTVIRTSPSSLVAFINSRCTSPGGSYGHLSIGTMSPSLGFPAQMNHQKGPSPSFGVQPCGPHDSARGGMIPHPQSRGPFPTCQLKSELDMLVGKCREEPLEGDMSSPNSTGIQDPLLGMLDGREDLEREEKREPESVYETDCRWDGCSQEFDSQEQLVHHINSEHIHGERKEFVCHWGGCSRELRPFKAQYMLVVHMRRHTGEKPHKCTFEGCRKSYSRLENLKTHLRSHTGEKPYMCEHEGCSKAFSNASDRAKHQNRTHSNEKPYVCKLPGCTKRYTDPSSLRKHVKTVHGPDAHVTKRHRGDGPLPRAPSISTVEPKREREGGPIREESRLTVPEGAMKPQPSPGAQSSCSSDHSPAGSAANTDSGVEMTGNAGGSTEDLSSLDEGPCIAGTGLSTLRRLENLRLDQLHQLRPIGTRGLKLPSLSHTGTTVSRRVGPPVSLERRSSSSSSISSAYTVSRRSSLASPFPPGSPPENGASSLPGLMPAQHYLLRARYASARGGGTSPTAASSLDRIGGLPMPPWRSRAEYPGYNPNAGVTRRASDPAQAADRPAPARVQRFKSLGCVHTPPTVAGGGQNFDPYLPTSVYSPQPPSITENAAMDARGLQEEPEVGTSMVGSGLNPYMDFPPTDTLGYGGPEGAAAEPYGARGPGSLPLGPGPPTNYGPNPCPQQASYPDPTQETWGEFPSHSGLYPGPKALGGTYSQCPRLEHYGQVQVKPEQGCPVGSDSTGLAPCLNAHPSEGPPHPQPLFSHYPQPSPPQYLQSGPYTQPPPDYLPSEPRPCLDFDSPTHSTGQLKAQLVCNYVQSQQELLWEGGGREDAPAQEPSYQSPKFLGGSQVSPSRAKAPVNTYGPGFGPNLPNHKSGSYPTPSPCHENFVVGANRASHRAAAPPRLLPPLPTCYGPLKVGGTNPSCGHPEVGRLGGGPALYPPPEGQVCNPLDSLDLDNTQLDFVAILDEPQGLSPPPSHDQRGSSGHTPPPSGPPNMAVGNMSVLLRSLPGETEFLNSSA
# Residue numbers refer to the chain shown, from its start. Results are given in words; binding and its absence hold for the method and conditions named. In cells and extracts the contact can be indirect. Some entries that bind do so weakly or less than the wild type.
# Columns and labels:
# Test in all cases: co-IP; HEK-293T cells co-transfected with equimolar tandem-epitope-tagged SUFU variant and GFP-GLI1; SUFU precipitated with anti-HA magnetic beads, 4 °C overnight; blots for GLI1, GFP and HA
# SUFU-TAP G158R (human) = molecular target: T1, SUFU-TAP G158R (human) (UniProt Q9UMX1)
# T1 sequence: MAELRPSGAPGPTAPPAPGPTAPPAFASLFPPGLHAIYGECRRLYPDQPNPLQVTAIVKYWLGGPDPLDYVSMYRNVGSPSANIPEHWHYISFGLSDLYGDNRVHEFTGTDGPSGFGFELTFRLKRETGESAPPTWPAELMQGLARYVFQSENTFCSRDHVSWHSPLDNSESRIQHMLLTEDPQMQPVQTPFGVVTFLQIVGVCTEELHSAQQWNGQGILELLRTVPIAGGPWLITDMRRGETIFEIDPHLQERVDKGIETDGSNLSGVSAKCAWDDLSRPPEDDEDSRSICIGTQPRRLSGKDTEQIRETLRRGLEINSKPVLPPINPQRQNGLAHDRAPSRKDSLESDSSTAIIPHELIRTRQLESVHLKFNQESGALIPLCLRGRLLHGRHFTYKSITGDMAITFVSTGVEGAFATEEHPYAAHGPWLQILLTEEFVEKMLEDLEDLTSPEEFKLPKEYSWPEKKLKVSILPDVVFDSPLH
# SUFU-TAP 464X (human) = molecular target: T2, SUFU-TAP 464X (human) (UniProt Q9UMX1)
# T2 sequence: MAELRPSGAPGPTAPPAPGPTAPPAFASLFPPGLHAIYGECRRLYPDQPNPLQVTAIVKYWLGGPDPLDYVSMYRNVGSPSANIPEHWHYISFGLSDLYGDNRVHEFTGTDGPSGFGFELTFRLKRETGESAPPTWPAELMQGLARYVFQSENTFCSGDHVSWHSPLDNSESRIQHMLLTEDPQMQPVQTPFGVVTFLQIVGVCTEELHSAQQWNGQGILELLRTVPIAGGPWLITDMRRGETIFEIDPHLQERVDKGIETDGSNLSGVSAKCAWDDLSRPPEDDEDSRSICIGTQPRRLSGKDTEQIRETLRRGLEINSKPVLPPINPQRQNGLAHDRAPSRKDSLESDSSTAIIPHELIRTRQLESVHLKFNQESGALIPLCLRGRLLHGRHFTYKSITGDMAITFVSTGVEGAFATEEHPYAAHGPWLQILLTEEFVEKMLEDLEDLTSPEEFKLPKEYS
# SUFU-TAP V478M (human) = molecular target: T3, SUFU-TAP V478M (human) (UniProt Q9UMX1)
# T3 sequence: T1 sequence with R158G, V478M
# [1] = molecular target: T4, SUFU-TAP wild type (human) (UniProt Q9UMX1)
# T4 sequence: T1 sequence with R158G
# SUFU-TAP P191S (human) = molecular target: T5, SUFU-TAP P191S (human) (UniProt Q9UMX1)
# T5 sequence: T1 sequence with R158G, P191S
# SUFU-TAP 146X (human) = molecular target: T6, SUFU-TAP 146X (human) (UniProt Q9UMX1)
# T6 sequence: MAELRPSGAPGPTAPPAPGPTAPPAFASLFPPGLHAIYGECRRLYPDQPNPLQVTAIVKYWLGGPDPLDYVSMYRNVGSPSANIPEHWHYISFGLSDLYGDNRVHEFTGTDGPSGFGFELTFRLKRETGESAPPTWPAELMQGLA
# SUFU-TAP 199X (human) = molecular target: T7, SUFU-TAP 199X (human) (UniProt Q9UMX1)
# T7 sequence: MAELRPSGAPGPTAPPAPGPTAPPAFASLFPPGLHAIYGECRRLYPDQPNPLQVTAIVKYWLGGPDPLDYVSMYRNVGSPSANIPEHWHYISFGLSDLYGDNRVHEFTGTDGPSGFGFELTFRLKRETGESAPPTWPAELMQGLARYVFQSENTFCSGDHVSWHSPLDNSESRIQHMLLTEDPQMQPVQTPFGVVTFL
# SUFU-TAP A379D (human) = molecular target: T8, SUFU-TAP A379D (human) (UniProt Q9UMX1)
# T8 sequence: T1 sequence with R158G, A379D
# SUFU-TAP L444S (human) = molecular target: T9, SUFU-TAP L444S (human) (UniProt Q9UMX1)
# T9 sequence: T1 sequence with R158G, L444S
substance,measurement,setting,value
GFP-GLI1 (from UniProt P08151 1-1106),binding,SUFU-TAP G158R (human),binds
same,binding,SUFU-TAP 464X (human),no binding
same,binding,SUFU-TAP V478M (human),binds
same,binding,[1],binds
same,binding,SUFU-TAP P191S (human),binds
same,binding,SUFU-TAP 146X (human),no binding
same,binding,SUFU-TAP 199X (human),no binding
same,binding,SUFU-TAP A379D (human),binds
same,binding,SUFU-TAP L444S (human),binds
